According to article PMC7284315:
These are yes or no findings as the source states them, for the method shown. In cells and extracts the contact can be indirect. Some results given as binding are weak or reduced against the parent protein; the word gives no strength. For some of these results: Sequences can lack the tags named with a protein. Blank lines part the entries; values can stand above or below the binder they belong to.

By UniProt entry, the sequences of proteins in these tests, tags left out. Where a name states a change or a piece, a line headed by the entry shows the natural chain unless it says otherwise.
UniProt O43639: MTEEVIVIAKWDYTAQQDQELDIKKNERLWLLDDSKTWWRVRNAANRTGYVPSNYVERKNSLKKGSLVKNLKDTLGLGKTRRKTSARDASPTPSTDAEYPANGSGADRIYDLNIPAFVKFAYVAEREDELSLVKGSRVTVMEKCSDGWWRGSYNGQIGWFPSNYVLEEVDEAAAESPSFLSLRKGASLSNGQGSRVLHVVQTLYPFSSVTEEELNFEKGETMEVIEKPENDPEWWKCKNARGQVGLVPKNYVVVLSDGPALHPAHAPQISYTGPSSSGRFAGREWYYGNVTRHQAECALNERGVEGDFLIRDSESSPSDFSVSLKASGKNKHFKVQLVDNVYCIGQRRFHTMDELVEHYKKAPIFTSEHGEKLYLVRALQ
UniProt P48730: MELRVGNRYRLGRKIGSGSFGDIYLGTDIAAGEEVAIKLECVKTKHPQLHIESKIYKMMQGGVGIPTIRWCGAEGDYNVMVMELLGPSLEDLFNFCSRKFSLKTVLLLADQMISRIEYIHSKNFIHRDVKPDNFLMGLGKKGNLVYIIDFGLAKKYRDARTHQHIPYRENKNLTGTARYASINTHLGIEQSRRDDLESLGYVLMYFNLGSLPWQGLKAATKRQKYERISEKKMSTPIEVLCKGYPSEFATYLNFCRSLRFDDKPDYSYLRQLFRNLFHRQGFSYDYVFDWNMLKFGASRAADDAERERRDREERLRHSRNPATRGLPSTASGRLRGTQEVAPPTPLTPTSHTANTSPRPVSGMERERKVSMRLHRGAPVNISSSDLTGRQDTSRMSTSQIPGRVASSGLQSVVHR
UniProt P48729: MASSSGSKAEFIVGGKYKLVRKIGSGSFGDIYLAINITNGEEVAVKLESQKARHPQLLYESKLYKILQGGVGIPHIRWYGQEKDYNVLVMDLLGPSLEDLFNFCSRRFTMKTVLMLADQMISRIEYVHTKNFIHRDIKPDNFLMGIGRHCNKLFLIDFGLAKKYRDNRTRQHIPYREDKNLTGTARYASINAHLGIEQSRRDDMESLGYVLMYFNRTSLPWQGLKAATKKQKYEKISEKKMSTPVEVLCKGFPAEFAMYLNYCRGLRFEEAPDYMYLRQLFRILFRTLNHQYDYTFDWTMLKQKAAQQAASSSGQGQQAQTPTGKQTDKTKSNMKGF
UniProt P49674: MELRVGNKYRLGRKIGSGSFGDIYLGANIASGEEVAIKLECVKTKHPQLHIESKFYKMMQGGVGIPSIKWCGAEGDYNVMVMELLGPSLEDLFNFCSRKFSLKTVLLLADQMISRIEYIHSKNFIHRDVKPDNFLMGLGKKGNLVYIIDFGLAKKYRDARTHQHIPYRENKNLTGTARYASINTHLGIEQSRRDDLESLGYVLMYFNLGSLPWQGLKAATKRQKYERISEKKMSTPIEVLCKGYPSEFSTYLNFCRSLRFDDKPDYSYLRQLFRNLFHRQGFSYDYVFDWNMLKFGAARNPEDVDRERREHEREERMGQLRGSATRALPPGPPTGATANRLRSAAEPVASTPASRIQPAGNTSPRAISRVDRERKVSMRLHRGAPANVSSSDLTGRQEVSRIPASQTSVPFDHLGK

Assays:
[1] = target: FLAG-NCK2^(W39K, W149K) (SH3-1/2*) (UniProt O43639); test: co-IP; anti-FLAG IP of transiently expressed FLAG-NCK1 or FLAG-NCK2 constructs from U2OS Flp-In T-REx cells induced to express FAM83H-GFP; immunoblot
[2] = target: FLAG-NCK2^W235K (SH3-3*) (UniProt O43639); test: as above
[3] = target: FLAG-NCK2^W149K (SH3-2*) (UniProt O43639); test: as above
[4] = target: FLAG-NCK2^W39K (SH3-1*) (UniProt O43639); test: as above
[5] = target: FLAG-NCK2^R311M (SH2*) (UniProt O43639); test: as above
[6] = target: FLAG-NCK2^(W39K, W235K) (SH3-1/3*) (UniProt O43639); test: as above
[7] = target: mCherry-CK1δ (endogenous knock-in, U2OS CK1^mCherry/mCherry) (human (endogenous in U2OS)) (UniProt P48730); test: co-IP; mCherry IP from lysates of U2OS CK1^mCherry/mCherry knock-in cells; immunoblot of input, IP and flow through
[8] = target: mCherry-CK1α (endogenous knock-in, U2OS CK1^mCherry/mCherry) (human (endogenous in U2OS)) (UniProt P48729); test: as above
[9] = target: mCherry-CK1ε (endogenous knock-in, U2OS CK1^mCherry/mCherry) (human (endogenous in U2OS)) (UniProt P49674); test: as above
[10] = target: T1, GFP-FAM83H (transient, U2OS FAM83H-/-) (human) (UniProt Q6ZRV2); test: co-IP; anti-GFP pull-down from lysates of U2OS FAM83H-/- cells transiently transfected with GFP or GFP-FAM83H and mCherry-UNC45A; Western blot
T1 sequence: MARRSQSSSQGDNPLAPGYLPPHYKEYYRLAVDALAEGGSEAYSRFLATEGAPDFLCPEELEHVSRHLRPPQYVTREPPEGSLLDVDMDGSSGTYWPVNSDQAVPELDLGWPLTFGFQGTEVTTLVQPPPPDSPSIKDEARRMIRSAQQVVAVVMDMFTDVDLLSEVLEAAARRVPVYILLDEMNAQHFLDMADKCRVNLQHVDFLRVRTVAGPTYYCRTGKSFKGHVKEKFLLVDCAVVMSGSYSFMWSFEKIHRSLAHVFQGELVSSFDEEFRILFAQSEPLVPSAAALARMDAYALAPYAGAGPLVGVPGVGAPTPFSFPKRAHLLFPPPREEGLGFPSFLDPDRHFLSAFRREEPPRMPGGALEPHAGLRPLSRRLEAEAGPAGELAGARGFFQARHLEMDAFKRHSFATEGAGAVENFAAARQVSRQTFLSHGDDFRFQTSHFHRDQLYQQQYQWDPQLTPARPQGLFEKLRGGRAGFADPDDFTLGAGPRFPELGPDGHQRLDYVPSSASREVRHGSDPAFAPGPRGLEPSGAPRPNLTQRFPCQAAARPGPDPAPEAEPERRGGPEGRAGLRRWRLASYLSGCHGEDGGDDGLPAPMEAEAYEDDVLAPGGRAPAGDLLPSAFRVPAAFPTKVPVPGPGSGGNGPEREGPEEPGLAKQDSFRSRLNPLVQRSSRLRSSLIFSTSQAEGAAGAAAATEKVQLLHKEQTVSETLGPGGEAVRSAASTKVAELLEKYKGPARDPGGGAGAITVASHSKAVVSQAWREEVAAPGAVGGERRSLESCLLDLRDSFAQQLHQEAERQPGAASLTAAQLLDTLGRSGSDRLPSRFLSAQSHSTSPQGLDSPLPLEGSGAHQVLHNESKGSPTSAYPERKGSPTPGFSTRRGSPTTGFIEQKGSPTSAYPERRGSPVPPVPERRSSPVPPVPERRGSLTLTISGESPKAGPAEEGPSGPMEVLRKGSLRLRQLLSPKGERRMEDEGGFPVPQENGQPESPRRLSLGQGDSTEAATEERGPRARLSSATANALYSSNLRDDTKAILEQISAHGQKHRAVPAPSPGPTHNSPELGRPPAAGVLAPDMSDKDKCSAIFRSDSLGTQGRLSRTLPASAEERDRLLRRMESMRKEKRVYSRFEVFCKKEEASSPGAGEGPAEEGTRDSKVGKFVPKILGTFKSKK

binding [1]: binds
binding [2]: binds
binding [3]: binds
binding [4]: binds
binding [5]: binds
binding [6]: binds
B1: FAM83H-GFP (U2OS Flp-In T-REx, doxycycline-induced) (protein, UniProt Q6ZRV2 1-1179)
chain: T1 sequence

binding [7]: binds
binding [8]: binds
binding [9]: binds
B2: FAM83H, endogenous (U2OS) (protein, UniProt Q6ZRV2 1-1179)
chain: T1 sequence

binding [10]: binds
B3: mCherry-UNC45A (protein, UniProt Q9H3U1 1-944)
chain: MTVSGPGTPEPRPATPGASSVEQLRKEGNELFKCGDYGGALAAYTQALGLDATPQDQAVLHRNRAACHLKLEDYDKAETEASKAIEKDGGDVKALYRRSQALEKLGRLDQAVLDLQRCVSLEPKNKVFQEALRNIGGQIQEKVRYMSSTDAKVEQMFQILLDPEEKGTEKKQKASQNLVVLAREDAGAEKIFRSNGVQLLQRLLDMGETDLMLAALRTLVGICSEHQSRTVATLSILGTRRVVSILGVESQAVSLAACHLLQVMFDALKEGVKKGFRGKEGAIIVDPARELKVLISNLLDLLTEVGVSGQGRDNALTLLIKAVPRKSLKDPNNSLTLWVIDQGLKKILEVGGSLQDPPGELAVTANSRMSASILLSKLFDDLKCDAERENFHRLCENYIKSWFEGQGLAGKLRAIQTVSCLLQGPCDAGNRALELSGVMESVIALCASEQEEEQLVAVEALIHAAGKAKRASFITANGVSLLKDLYKCSEKDSIRIRALVGLCKLGSAGGTDFSMKQFAEGSTLKLAKQCRKWLCNDQIDAGTRRWAVEGLAYLTFDADVKEEFVEDAAALKALFQLSRLEERSVLFAVASALVNCTNSYDYEEPDPKMVELAKYAKQHVPEQHPKDKPSFVRARVKKLLAAGVVSAMVCMVKTESPVLTSSCRELLSRVFLALVEEVEDRGTVVAQGGGRALIPLALEGTDVGQTKAAQALAKLTITSNPEMTFPGERIYEVVRPLVSLLHLNCSGLQNFEALMALTNLAGISERLRQKILKEKAVPMIEGYMFEEHEMIRRAATECMCNLAMSKEVQDLFEAQGNDRLKLLVLYSGEDDELLQRAAAGGLAMLTSMRPTLCSRIPQVTTHWLEILQALLLSSNQELQHRGAVVVLNMVEASREIASTLMESEMMEILSVLAKGDHSPVTRAAAACLDKAVEYGLIQPNQDGE
